# Experimental data taken from the supplement of paper PMC12217912.
# The other results are listed elsewhere or left out. Sequences were assembled here from the parent chain. Inactive controls read about 0.05.
# B1: TEV protease; numbered along this chain (parent)
# chain: MGESLFKGPRDYNPISSSICHLTNESDGHTTSLYGIGFGPFIITNKHLFRRNNGTLVVQSLHGVFKVKDTTTLQQHLVDGRDMIIIRMPKDFPPFPQKLKFREPQREERICLVTTNFQTKSMSSMVSDTSCTFPSGDGIFWKHWIQTKDGQCGSPLVSTRDGFIVGIHSASNFTNTNNYFTSVPKNFMELLTNQEAQQWVSGWRLNADSVLWGGHKVFMVKPEEPFQPVKEATQL
# Variants of: B1
# Test: raw area under fraction-flipped curve 0-4 h after induction (AUC4h, not background-subtracted), DNA-recorder readout of cleavage of the substrate (dimensionless); higher = more cleavage of the substrate by the protease variant
# Details: temperature: 34 °C; time window: 0-4 h after rhamnose induction
# Procedure: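 In vivo DNA recorder in E. coli TOP10(DE3) ΔrhaA at 34 °C. Each TEVp single-site mutant (parent TEVp 0) is paired with a single-site variant of the 7-mer TEVs (canonical ENLYFQ|S). The substrate sits between flexible linkers in a Bxb1-sfGFP-TEVs-SsrA fusion, so cleavage stabilises Bxb1 and speeds flipping of a recombination array, read by NGS. The value is the raw area under the fraction-flipped curve over 0-4 h after rhamnose induction (AUC4h), with ≥20 reads per time point. It is not background-subtracted; inactive controls average about 0.047.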
# 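Further: Bxb1 expression induced with 0.2% (w/v) L-rhamnose at OD600 near 0.5, cultures sampled hourly, flipped fraction per protease–substrate barcode pair counted by paired-end Illumina sequencing.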
Variant,area with substrate ENLYFAS,area with substrate ENLYFCS,area with substrate ENLYFES,area with substrate ENLYFGS,area with substrate ENLYFIS,area with substrate ENLYFKS,area with substrate ENLYFMS,area with substrate ENLYFNS,area with substrate ENLYFPS,area with substrate ENLYFTS,area with substrate ENLYFDS,area with substrate ENLYFFS,area with substrate ENLYFHS,area with substrate ENLYFRS,area with substrate ENLYFSS,area with substrate ENLYFLS,area with substrate ENLYFVS,area with substrate ENLYFYS,area with substrate ENLYFWS
P9R,0.0651,0.0497,0.0627,0.043,0.0517,0.0479,0.0809,0.0643,0.0377,0.0498,–,–,–,–,–,–,–,–,–
S17P,0.0434,0.062,0.0591,–,0.0553,0.0441,0.0582,–,0.0667,–,0.0527,0.0288,0.0705,0.0714,–,–,–,–,–
L5P,0.0601,–,–,–,0.0693,–,0.0712,–,–,–,0.0451,–,–,–,0.0642,–,–,–,–
R10W,0.0495,0.0853,–,0.0738,0.0526,0.0606,0.0684,0.0757,0.057,0.0588,–,0.0503,0.043,0.0696,0.0555,0.0576,0.0689,0.0484,–
R10D,0.0663,0.0609,0.0647,–,0.0532,0.0675,–,0.0471,0.0599,0.0553,0.0633,0.0812,0.0532,0.0486,0.0572,0.0323,0.0616,0.0518,–
S18Q,0.0613,0.0879,0.0756,0.0462,0.0586,–,0.0654,0.07,–,–,0.0585,0.0577,0.0507,0.0605,–,0.0493,–,–,0.051
Y12M,0.0989,0.0671,0.0601,0.061,0.0545,0.0663,0.0578,–,0.0623,0.0535,–,0.0754,0.0705,–,0.0479,0.056,0.0679,0.0506,0.0474
Y12C,0.0571,0.0653,0.0591,–,0.0668,0.0629,0.0648,0.0718,0.0597,0.0645,–,0.0643,–,0.065,0.058,0.067,0.0582,0.0558,0.0485
T23A,0.0627,–,0.0586,–,0.0557,0.0626,0.0668,0.0636,0.0613,–,–,0.0712,0.0561,0.0666,0.0344,0.071,–,–,0.058
D11F,0.0482,0.0475,0.0585,–,0.0586,0.0591,0.0804,0.0628,0.0645,0.0785,–,0.0796,–,0.0621,0.0514,0.0833,0.0518,0.0466,0.0695
D11P,0.06,–,0.0608,0.0558,0.0572,0.0675,0.0587,0.0646,0.0419,0.0581,0.0712,0.0686,0.0512,–,0.0548,0.0527,–,0.0668,0.0589
C20W,0.0404,0.0367,0.0442,0.046,0.0429,0.0578,0.0356,0.0422,0.0452,0.0347,0.0584,0.0446,0.0503,0.0366,0.0345,0.0403,0.0419,0.0243,0.0449
C20L,0.0623,0.0564,0.0777,–,0.0511,0.0557,0.0577,0.0634,–,0.0529,0.0625,0.0676,0.0483,0.0471,0.0637,0.0629,–,–,0.0502
N13H,0.0522,0.0535,0.0571,–,0.0629,–,0.065,0.0507,0.0565,0.0342,0.0718,0.0711,0.0565,0.0627,–,0.0524,–,0.0559,0.0566
N13M,0.0514,0.0637,0.0512,–,0.069,0.0579,0.0788,–,0.0541,0.0593,–,0.0645,0.0679,0.0686,0.046,–,0.0564,0.0632,–
E3R,0.0622,0.0631,–,–,0.05,0.0594,0.0627,0.0677,0.0574,–,0.0735,0.0358,0.0575,–,0.0533,0.0712,–,0.0506,–
E3C,0.0637,–,0.0573,0.0398,0.0607,0.0725,0.058,0.0891,0.0451,–,–,0.0748,0.0678,0.058,–,–,0.0548,0.0444,–
E3F,0.06,–,–,–,–,0.0534,0.0707,0.0591,0.0652,0.0442,0.0991,0.0516,–,–,–,–,–,–,0.0531
H21V,0.0636,–,0.0558,–,0.0571,–,0.0567,0.0616,0.0565,0.0643,–,0.0772,–,0.0528,0.0816,0.0462,0.0573,0.0496,0.0649
L22C,0.0506,0.0587,0.0638,0.0657,0.0589,–,0.0715,0.087,0.0502,0.0425,0.0769,0.0682,0.0513,–,0.0573,0.0506,0.071,0.0455,0.0503
L22D,0.0495,0.0435,0.0718,–,0.0419,0.0462,0.0412,0.0501,0.045,0.0405,–,0.0483,0.0451,0.0413,0.0468,0.0365,0.0351,0.0448,–
P14K,0.0636,0.0793,0.0566,0.06,0.053,0.0699,0.0709,0.0556,0.0666,0.0597,–,0.0791,0.0718,0.068,0.0604,–,–,0.0569,0.0558
P14H,0.0672,0.0675,–,–,0.0593,0.0654,0.076,0.068,0.0648,–,0.0536,0.0679,0.0478,0.0549,–,0.053,–,–,0.0576
P14E,0.0668,–,–,–,0.0584,0.0582,0.0602,0.0654,0.0587,0.0594,–,0.0995,–,0.0643,0.0437,0.0626,–,0.0596,0.0599
I15P,0.0495,0.05,0.0618,0.0595,0.054,–,0.0615,0.0522,0.0493,–,–,0.0505,0.0677,0.0577,–,0.0549,0.0581,0.0493,–
